# Assay results taken from PubChem BioAssay AID652104 (National Center for Advancing Translational Sciences (NCATS), 2013).
# The campaign covered roughly 410,000 compounds. About 7,200 (1.8%) were called active. Inconclusive means that the source gave no clear call. Such entries were picked first, then a sample of the others. Calls follow the shape of the dose curve; as a rule, active = well fitted activation curve with a large enough effect; inconclusive = small, poorly fitted or top-dose-only effect, or another doubt; inactive = no such curve, though single readings can be large or run the other way. No potency is given beside an inconclusive call; the fits are too rough.
# Assay: qHTS of TDP-43 Inhibitors; also: nearly all actives have a fitted effect of over 50% in size; as to growth rescue (activation): % of control where 0% means no effect
# Conditions: TDP-43 expressing yeast growth rescue, BacTiter-Glo, 24 h; growth rescue (activation): at 46.1 µM (top of the series) unless noted
# Method in brief: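 Yeast cells expressing TDP-43 under galactose induction are exposed to compounds for 24 hr at 30 deg C. BacTiter-Glo luminescence measures growth, so protective compounds score as activators.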
# Potency is read from the fitted curve at half-maximal effect; tags tell the direction and shape of the fitted curve.
Compound,Potency,growth rescue (activation)
CCCCNc1c(-c2ccc(OC)c(Sc3ccc(OC)cc3)c2)nc2cnccn12,active: 31.6 µM,–
O=C(O)c1ccccc1C(=O)NNc1ccc(F)cc1,"inconclusive [activator, partial curve]",–
Cc1ccc(NC(=O)c2cnc(N3CCCC3)nc2C)cc1F,"inconclusive [activator, partial curve]",–
CCOc1ccc(C(=O)Nc2nnc(SCc3cc(=O)n4ccccc4n3)s2)cc1,–,inactive: 17%
CCc1ccc(CNC(=O)CCc2nc(-c3cccs3)no2)cc1,"inconclusive [activator, partial curve, poor fit]",–
O=C(Nc1nccs1)C1CC2CCC1C2 (centres undefined),"inconclusive [activator, partial curve, poor fit]",–
COc1ccc(C(=O)OCc2c(-c3ccccc3)ncc3ccccc23)cc1,"inconclusive [activator, partial curve]",–
COc1ccc(-c2noc(CCc3ccccc3)n2)cc1,active: 17.8 µM,–
Cc1cc(=S)nc(-c2ccccn2)[nH]1,"inconclusive [activator, single point]",–
CCOc1ccc(/C=C(\C#N)C(=O)c2c(C)[nH]c3ccccc23)cc1OC,active: 20 µM,–
Cc1cc(SC#N)cc(C)c1NC(=O)CCl,"inconclusive [activator, single point]",–
COCCSc1nnc(NC(=O)c2ccc([N+](=O)[O-])cc2)s1,"inconclusive [activator, partial curve, poor fit]",–
CSC1=NC(=O)/C(=C\c2cccc3ccccc23)S1,"inconclusive [activator, single point]",–
O=C(NCc1ccccn1)c1cc(-c2ccccc2Cl)nc2ccccc12,active: 20 µM,–
Cc1ccc2onc(CC(=O)N3CCN(c4cccc(Cl)c4)CC3)c2c1,active: 20 µM,–
Cc1ccc(NC(=O)C2(C)CCN2C(=O)Cc2cc(F)ccc2F)cc1 (centres undefined),"inconclusive [activator, partial curve]",–
COc1ccc(NC(=O)Cn2c(=O)oc3cc(S(=O)(=O)N4CCCCCC4)ccc32)cc1OC,–,inactive: 15.1%
CCS(=O)(=O)N1Cc2ccccc2CC1C(=O)OCC(=O)Nc1ccc(SC(F)F)cc1 (centres undefined),"inconclusive [activator, single point]",–
O=c1[nH]c(=S)[nH]c2c1[C@H](CCc1cccc(Cl)c1)O[C@H](C1CCCC1)C2,"inconclusive [activator, partial curve, poor fit]",–
c1ccc(CC2CCN(c3ncnc4sccc34)CC2)cc1,active: 12.6 µM,–
COCCCn1cc(CN2CC(N3CCN(Cc4ccccc4F)CC3)CS2(=O)=O)nn1 (centres undefined),–,inactive: 12.6%
O=C(Nc1ccc(Cl)cn1)C1CCCN1S(=O)(=O)c1cccc2ccccc12 (centres undefined),"inconclusive [activator, single point]",–
O=C(NCCc1ccccc1)N1c2ccccc2Sc2ccccc21,"inconclusive [activator, single point]",–

Compound,Potency,growth rescue (activation)
Cc1cccc(OCc2nc(C#N)c(NCCN(C)C)o2)c1,"inconclusive [activator, partial curve, poor fit]",–
C/C(=N\Nc1nc(C)cc(-c2ccccc2)n1)c1cccc(N)c1,–,inactive: 25.4%
O=S(=O)(Nc1cccc2c1CCCC2)c1ccc(Cl)cc1,"inconclusive [activator, single point]",–
COc1ccc(C/C(N)=N/OC(=O)Cc2ccccc2)cc1OC,"inconclusive [activator, single point]",–
CC(=O)OC1CC[C@@]2(C)C(CCC3C2CC(=O)[C@@]2(C)C3CC3CC(C)=CC(=O)C32)C1 (some centres undefined),"inconclusive [activator, single point]",–
CC(=O)Nc1cc(C(=O)NCc2ccc(F)cc2)ccc1Sc1ccc(F)cc1,active: 31.6 µM,–
CN(c1ccccc1)c1nc(N)c([N+](=O)[O-])c(N2CCCC2)n1,"inconclusive [activator, single point]",–
COc1ccccc1NC(=O)c1cc(Br)ccc1Cl,"inconclusive [activator, single point]",–
O=C(OCn1nnc2ccccc2c1=O)c1cccs1,"inconclusive [activator, single point]",–
CCCCc1ccc(CC(=O)O)cc1,"inconclusive [activator, partial curve]",–
Cc1ccc(-n2ncc3c(N4CCCCCC4)ncnc32)cc1Cl,"inconclusive [activator, partial curve]",–
Cn1ncc2c(Nc3ccccc3Br)ncnc21,"inconclusive [activator, partial curve]",–
Cc1c(C2(O)CCCCC2)[nH]c2cc(C(F)(F)F)ccc12,active: 6.31 µM,–
Cc1ccc(S(=O)(=O)N2[C@@H](c3ccc(F)cc3)C(C(=O)O)=CC[C@H]2c2ccc3c(c2)OCO3)cc1,active: 17.8 µM,–
COc1cccc(-c2cc(C(F)(F)F)nc(NCCc3ccc(OC)c(OC)c3)n2)c1,"inconclusive [activator, partial curve]",–
O=C(c1cnc(N2CCN(c3ncccn3)CC2)c2ccccc12)N1CCN(c2ncccn2)CC1,–,inactive: 12.1%
CCOc1cc(N2CCOCC2)c(OCC)cc1NC(=O)c1cc(C)cc(C)c1,"inconclusive [activator, single point]",–
COc1cc(S(=O)(=O)NC2CCCCC2C)ccc1F (centres undefined),"inconclusive [activator, single point]",–
Nc1cc2c(cc1Br)-c1ccc(F)cc1C2O (centres undefined),"inconclusive [activator, partial curve]",–
Cc1ccc2nc(SCCC(=O)O)cc(C)c2c1,"inconclusive [activator, single point]",–
O=[N+]([O-])c1cc(/C=N\Nc2ccccn2)ccc1Cl,"inconclusive [activator, partial curve]",–
N#Cc1ccc(C(S(=O)(=O)Cc2ccccc2)S(=O)(=O)Cc2ccccc2)cc1,"inconclusive [activator, partial curve, poor fit]",–
COc1ccc([C@H]2CC(=O)C=C(c3ccc4c(c3)OCCO4)C2)cc1,"inconclusive [activator, single point]",–

Compound,Potency,growth rescue (activation)
COCCCNc1nc2ccccc2nc1NS(=O)(=O)c1ccc(C)cc1,"inconclusive [activator, partial curve]",–
COc1ccc(CCNC(=O)CCCn2c(=O)c3ccccc3n(Cc3ccccc3)c2=O)cc1OC,–,inactive: 6.26%
O=C(COC(=O)Cc1ccc(F)cc1)Nc1ccc(Cl)cn1,"inconclusive [activator, partial curve]",–
Cc1cccc(C(=O)Nc2cc(NC(=O)c3cccs3)ccc2C)c1,"inconclusive [activator, single point]",–
CNC(=O)C1CCC(Cn2c(=O)c3sccc3n(CC(=O)N3CCCC(C)C3)c2=O)CC1 (centres undefined),–,inactive: 10.7%
O=C(COC(=O)c1ccc(Br)o1)NC12CC3CC(CC(C3)C1)C2,"inconclusive [activator, partial curve]",–
C[C@H](CO)N1C[C@H](C)[C@@H](CN(C)S(=O)(=O)c2ccccc2)OCc2cn(nn2)CCCC1=O,–,inactive: -13.5%
COc1ccc2cc(-c3ccsc3)ncc2c1,"inconclusive [activator, full curve, poor fit]",–
c1ccc(CN2CCC(N=C3NN=C(c4ccc5c(c4)OCCO5)CS3)CC2)cc1,"inconclusive [activator, full curve, poor fit]",–
Cc1cc2n(n1)C(c1sccc1C)Nc1c(C)cccc1-2 (centres undefined),"inconclusive [activator, partial curve, poor fit]",–
COc1cc(C(C)=O)ccc1OCC(=O)N(CCC1=CCCCC1)c1c(N)n(Cc2ccccc2)c(=O)[nH]c1=O,–,inactive: 22.2%
COc1ccc(NC(=O)N2CCn3c2nc2ccccc23)cc1,"inconclusive [activator, single point]",–
S=C(NCC1CCCO1)c1ccc(Br)cc1 (centres undefined),active: 11.2 µM,–
Cc1cc(C(=O)O/N=C(\N)c2ccncc2)ccc1[N+](=O)[O-],"inconclusive [activator, single point]",–
COc1cccc(C(=O)Nc2ccc(N3CCN(C(=O)c4cccs4)CC3)cc2)c1,"inconclusive [activator, partial curve]",–
COc1ccc(-c2nnc(SCC(=O)N3CCC(C)CC3)o2)cc1,"inconclusive [activator, partial curve, poor fit]",–
O=C(NCc1ccco1)c1ccc(-c2ccc(Cl)cc2)o1,"inconclusive [activator, full curve]",–
COCCCNC(=O)COc1ccc(-c2nccc(-c3ccccn3)n2)cc1,"inconclusive [activator, partial curve, poor fit]",–
Cc1cc(C)cc(-n2ccnc2SCC(=O)Nc2cccc3ccccc23)c1,active: 20 µM,–
O=C(O)c1cc2c(s1)-c1ccccc1CC2,–,inconclusive: -68.6% [activator]
CCOC(=O)c1c(NC(=O)COC(=O)c2cnccn2)sc(C)c1C,"inconclusive [activator, partial curve]",–
COc1ccccc1C1NC(=O)c2n[nH]c(-c3cccs3)c21 (centres undefined),–,inactive: 0%
COc1ccc(OC)c(S(=O)(=O)n2nnc3ccccc32)c1,"inconclusive [activator, single point]",–
